The list shows a part of the results. The full chains were built here from the parent and the listed change. Inactive controls read about 0.05.
B1: TEV protease; numbered along this chain (parent)
chain: MGESLFKGPRDYNPISSSICHLTNESDGHTTSLYGIGFGPFIITNKHLFRRNNGTLVVQSLHGVFKVKDTTTLQQHLVDGRDMIIIRMPKDFPPFPQKLKFREPQREERICLVTTNFQTKSMSSMVSDTSCTFPSGDGIFWKHWIQTKDGQCGSPLVSTRDGFIVGIHSASNFTNTNNYFTSVPKNFMELLTNQEAQQWVSGWRLNADSVLWGGHKVFMVKPEEPFQPVKEATQL

Variants of: B1
Assay: raw area under fraction-flipped curve 0-4 h after induction (AUC4h, not background-subtracted), DNA-recorder readout of cleavage of the substrate (dimensionless); higher = more cleavage of the substrate by the protease variant
Conditions: temperature: 34 °C; time window: 0-4 h after rhamnose induction
Description: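 In vivo DNA recorder in E. coli TOP10(DE3) ΔrhaA at 34 °C. Each TEVp single-site mutant (parent TEVp 0) is paired with a single-site variant of the 7-mer TEVs (canonical ENLYFQ|S). The substrate sits between flexible linkers in a Bxb1-sfGFP-TEVs-SsrA fusion, so cleavage stabilises Bxb1 and speeds flipping of a recombination array, read by NGS. The value is the raw area under the fraction-flipped curve over 0-4 h after rhamnose induction (AUC4h), with ≥20 reads per time point. It is not background-subtracted; inactive controls average about 0.047.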
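Also: Bxb1 expression induced with 0.2% (w/v) L-rhamnose at OD600 near 0.5, cultures sampled hourly, flipped fraction per protease–substrate barcode pair counted by paired-end Illumina sequencing.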

| Variant | area with substrate ENAYFQS | area with substrate ENCYFQS | area with substrate ENDYFQS | area with substrate ENEYFQS | area with substrate ENFYFQS | area with substrate ENGYFQS | area with substrate ENKYFQS | area with substrate ENPYFQS | area with substrate ENQYFQS | area with substrate ENRYFQS | area with substrate ENSYFQS | area with substrate ENTYFQS | area with substrate ENVYFQS | area with substrate ENYYFQS | area with substrate ENHYFQS | area with substrate ENIYFQS | area with substrate ENMYFQS | area with substrate ENNYFQS | area with substrate ENWYFQS |
| --- | --- | --- | --- | --- | --- | --- | --- | --- | --- | --- | --- | --- | --- | --- | --- | --- | --- | --- | --- |
| L33H | 0.0499 | 0.0513 | 0.0599 | 0.0584 | 0.057 | 0.0556 | 0.063 | 0.0579 | 0.0617 | 0.0638 | 0.0686 | 0.0543 | 0.0595 | 0.0591 | – | – | – | – | – |
| L33R | 0.0632 | – | 0.0564 | 0.0622 | 0.0668 | 0.0645 | 0.0605 | 0.0493 | 0.0588 | 0.0462 | 0.0506 | 0.0488 | 0.0566 | 0.0524 | 0.0648 | 0.053 | 0.0527 | – | – |
| L33Y | 0.0511 | 0.0657 | 0.0614 | 0.0637 | – | 0.0592 | – | – | 0.0638 | 0.0701 | 0.063 | – | 0.0608 | 0.0591 | – | – | – | 0.0653 | – |
| G37A | 0.0569 | 0.0762 | – | 0.0708 | 0.0682 | 0.0657 | 0.0547 | 0.0629 | – | – | 0.028 | 0.0657 | 0.0804 | – | – | 0.096 | – | – | – |
| G37F | 0.0471 | 0.059 | 0.0568 | 0.0541 | 0.0573 | 0.0607 | 0.0491 | 0.0436 | 0.0449 | 0.0482 | 0.0499 | 0.0481 | 0.0793 | 0.0559 | 0.0494 | 0.0479 | 0.0439 | 0.0543 | 0.0597 |
| G37S | 0.0425 | 0.0506 | – | 0.0485 | – | – | – | 0.0463 | 0.0569 | – | 0.0511 | – | 0.0614 | – | 0.0546 | – | – | 0.0603 | 0.0485 |
| G39F | 0.0998 | 0.0504 | 0.0456 | 0.0532 | 0.0113 | 0.0518 | 0.037 | 0.0447 | 0.0453 | 0.0473 | 0.0473 | – | 0.0403 | 0.0421 | 0.0382 | 0.0554 | – | 0.0435 | – |
| G39L | 0.0551 | 0.0231 | 0.0812 | 0.0531 | 0.0489 | 0.0264 | – | 0.0314 | 0.0401 | 0.0322 | 0.0338 | – | 0.038 | – | – | – | – | 0.0384 | 0.0444 |
| G39Y | 0.0424 | – | 0.0498 | 0.0501 | – | 0.0488 | 0.0451 | 0.0496 | 0.0235 | – | 0.0508 | 0.0497 | – | – | 0.0412 | – | 0.037 | 0.0453 | – |
| P40Q | 0.0969 | 0.0768 | 0.0512 | 0.0651 | 0.047 | 0.0557 | 0.0633 | – | 0.0607 | – | 0.0584 | 0.0609 | – | – | – | 0.104 | 0.0923 | 0.0332 | 0.0727 |
| F41A | 0.0693 | 0.0565 | 0.0551 | 0.0854 | 0.0585 | – | – | – | 0.0543 | 0.04 | 0.0586 | – | 0.0693 | 0.0604 | – | – | 0.0844 | 0.0375 | – |
| F41P | 0.0686 | 0.0508 | 0.0551 | 0.0519 | 0.0493 | 0.061 | 0.058 | – | 0.0502 | 0.0482 | 0.0487 | 0.0526 | 0.0484 | 0.0744 | 0.0484 | 0.0461 | 0.0525 | 0.0739 | 0.0502 |
| F41Q | 0.0492 | 0.0502 | 0.0634 | 0.0473 | 0.0606 | 0.0639 | 0.0693 | – | 0.0509 | 0.0308 | 0.0411 | – | 0.0582 | – | – | 0.071 | 0.0721 | 0.0535 | – |

From the supplement of paper PMC12217912
